# PubChem BioAssay AID2451 (National Center for Advancing Translational Sciences (NCATS), 2010)
# The whole screen tested about 290,000 compounds, of which about 2,100 (0.72%) were called active. This list was built around the results that the source calls inconclusive (neither active nor inactive); the mix of calls is not that of the screen. The call rests on the fitted dose curve; in most records, active means well fitted inhibition curve with a large enough effect; inconclusive means small, poorly fitted or top-dose-only effect, or effect the other way; inactive means flat fitted curve, though single readings scatter. A potency beside an inconclusive call is a rough fit, not a confirmed value.
# Biological target: Fructose-bisphosphate aldolase (Giardia intestinalis (strain ATCC 50803 / WB clone C6)) (UniProt A8B2U2)
# Assay: qHTS Assay for Inhibitors of Fructose-1,6-bisphosphate Aldolase from Giardia Lamblia; further: nearly all actives have a fitted effect of over 55% in size
# Conditions: purified Giardia FBPA; activity, negative = inhibition: at 59.6 µM (top of the series) unless noted
# Outline: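 Giardia FBPA (40 nM reagent) was preincubated 10 min at RT with compound (up to 57.5 uM final), then substrate plus GAPDH/TPI/NAD/arsenate coupling system with diaphorase/resazurin was added; resorufin fluorescence (525/598 nm) was read after 20 min.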
# On the % scale 0 is the no-effect control and ±100 the full control effect; potency means the concentration at half of the fitted maximal effect; tags describe the fitted curve by direction and shape.
# Sequence of UniProt A8B2U2 (A8B2U2 whole entry, looked up): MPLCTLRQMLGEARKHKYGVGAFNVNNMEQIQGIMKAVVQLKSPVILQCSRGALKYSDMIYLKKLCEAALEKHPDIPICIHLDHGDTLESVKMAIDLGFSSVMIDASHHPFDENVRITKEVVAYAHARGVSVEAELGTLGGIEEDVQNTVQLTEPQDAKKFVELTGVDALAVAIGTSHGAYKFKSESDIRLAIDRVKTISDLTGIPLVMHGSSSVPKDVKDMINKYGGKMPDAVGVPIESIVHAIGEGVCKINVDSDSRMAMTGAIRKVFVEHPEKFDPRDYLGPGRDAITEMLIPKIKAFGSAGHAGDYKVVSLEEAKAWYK
Compound,Potency,"activity, negative = inhibition"
COC1=CC2C3Cc4ccc(OC)c(O)c4[C@]2(CCN3C)CC1=O (some centres not stated),"inconclusive: 22.3 µM [inhibitor, partial curve]",–
CCN(CC)CCN(C(=O)c1ccc(C(=O)c2ccccc2)cc1)c1nc2cc3c(cc2s1)OCO3,"inconclusive: 25.1 µM [inhibitor, single point]",–
Cc1ccc(NC(=O)CCNS(=O)(=O)c2ccc3[nH]c(=O)oc3c2)cc1N(C)C,"inconclusive: 28.2 µM [inhibitor, single point]",–
NS(=O)(=O)c1ccc(NC(=S)N2CCN(Cc3ccc4c(c3)OCO4)CC2)cc1,"inconclusive: 31.5 µM [inhibitor, single point]",–
NC(=O)c1sc(-c2ccsc2)cc1NS(=O)(=O)c1ccc(C(F)(F)F)cc1,"inconclusive: 17.7 µM [activator, partial curve]",–
CCNC(=S)NNC(=O)c1csc(C(C)C)c1,inactive,–
CC(C)CCn1c(=O)c2ccccc2n2c(COC(=O)c3ccc(S(=O)(=O)N(C)C)cc3)nnc12,inactive,–
COc1ccccc1N1CCN(CCCCOc2ccc(C)cc2C)CC1,"inconclusive: 4.47 µM [inhibitor, partial curve, poor fit]",–
c1coc(-c2nc(-c3ccco3)c(-c3ccco3)nc2-c2ccco2)c1,"inconclusive: 7.06 µM [inhibitor, partial curve]",–
CCN1C(=O)[C@H]2[C@H]3[C@H](O)[C@H](O)C/C(=N/OCc4ccccc4)[C@H]3CC[C@@H]2C1=O,–,inactive: -0.475% [at 12.9 µM]
COc1cc(CNc2ncc(-c3ccc(Cl)cc3)n2C)cc(OC)c1OC,"inconclusive: 31.6 µM [inhibitor, single point]",–
O=C(NC(=S)Nc1cccc(O)c1)c1ccco1,"inconclusive: 15.8 µM [inhibitor, partial curve]",–
O=C(NCc1cc(Br)cc(Br)c1OC(=O)c1ccccc1[N+](=O)[O-])c1ccccc1,inactive,–
Cc1ccc(OCc2nc(-c3ccc(Cl)cc3)n[nH]2)cc1,inactive,–
c1ccc(C2[C@H]3CN(Cc4cccnc4)[C@H](c4ccccc4)C34CC2(c2cccnc2)C4)cc1 (some centres not stated),inactive,–
COc1ccc(C(=O)/C=C2/c3ccccc3CC(C)(C)N2C)cc1OC,"inconclusive: 25.1 µM [inhibitor, single point]",–
CCN(CC(=O)Nc1ccc(C)c(S(=O)(=O)N(C)C)c1)Cc1ccccc1,"inconclusive: 15.8 µM [inhibitor, partial curve]",–
CCN(CC)P(=S)(c1c(C)nc2ccccn12)c1c(C)nc2ccccn12,"inconclusive: 15.8 µM [inhibitor, single point]",–
Cn1ccc(=S)c2ccccc21,"inconclusive: 17.7 µM [inhibitor, single point]",–
Cc1onc(-c2ccccc2)c1C(=O)N/N=C/c1cccs1,"inconclusive: 19.9 µM [inhibitor, partial curve]",–
Cc1ccc(NC2=NCC(=O)N2C2CCCC2)c(C)c1,"inconclusive: 17.7 µM [inhibitor, single point]",–
CCc1cc(C(=O)N=Nc2c(O)[nH]c3ccc([N+](=O)[O-])cc23)c2ccccc2n1,inactive,–
CC1CCCCC1NCC#CCOc1ccc(Cl)cc1 (configuration not stated),"inconclusive: 14.1 µM [inhibitor, partial curve]",–
COc1c(C)cccc1C(=O)NCc1ccc2c(c1)OCO2,inactive,–

Compound,Potency,"activity, negative = inhibition"
OC(CN1CCOCC1)Cn1c2c(c3ccccc31)CCCC2 (configuration not stated),"inconclusive: 28.2 µM [inhibitor, single point]",–
COc1ccc2nccc(/C=C/c3ccnc4ccc(OC)cc34)c2c1,"inconclusive: 15.8 µM [inhibitor, single point]",–
CCN1CCN(C(=S)NCCc2ccccc2)CC1,"inconclusive: 9.98 µM [inhibitor, partial curve]",–
COc1cc(NC(=O)N[C@@H](Cc2ccccc2)C(=O)O)cc(OC)c1,inactive,–
FC(F)(F)c1cccc(N2CCN(C3CC4CCC3C4)CC2)c1 (configuration not stated),"inconclusive: 31.6 µM [inhibitor, single point]",–
CC(C(=O)NC1C(=O)N2C(C(=O)O)=C(CSc3nnnn3C)CSC12)n1cc(Cl)cn1 (configuration not stated),active: 17.7 µM,–
CCc1c(-c2n[nH]c(=S)n2Cc2ccccc2)csc1C,inactive,–
NS(=O)(=O)c1cc2c(cc1Cl)NC(CSCc1ccccc1)=NS2(=O)=O,"inconclusive: 15.8 µM [inhibitor, single point]",–
Cc1cc(C)cc(NC(=O)CSc2ncc(S(=O)(=O)c3ccccc3)c(=O)[nH]2)c1,"inconclusive: 15.8 µM [activator, single point]",–
CCOc1ccc(OCCNCc2ccc(OC(C)C(=O)N(C)C)c(OCC)c2)cc1 (configuration not stated),"inconclusive: 14.1 µM [inhibitor, partial curve]",–
O=c1[nH]c(-c2cccnc2)nc2ccccc12,inactive,–
COc1ccc(OC)c(CNc2ncc(-c3cccc([N+](=O)[O-])c3)n2C)c1,active: 28.2 µM,–
COC(=O)CN(C#N)c1nc(N(C)C)nc(N(C)C)n1,inactive,–
NC(=O)c1nsc(C(=O)N(Cc2ccco2)C(C(=O)NC2CCCC2)c2ccc(O)cc2)c1N (configuration not stated),inactive,–
Cc1ccc(NC(=S)NNC(=O)c2ccccc2OC(F)F)cc1,"inconclusive: 17.7 µM [activator, single point]",–
CN(C)C1C(=O)C(C(N)=O)=C(O)[C@@]2(O)C(=O)C3=C(O)c4c(O)ccc(Cl)c4[C@](C)(O)C3CC12 (some centres not stated),"inconclusive: 7.06 µM [inhibitor, partial curve]",–
COc1ccc(CCNCCN2CCOCC2)cc1,"inconclusive: 25.1 µM [inhibitor, partial curve]",–
COc1ccc(NC(=S)NN(C)C(=S)Nc2ccc(OC)cc2)cc1,"inconclusive: 7.92 µM [inhibitor, partial curve]",–
CCSc1nnc(NC(=O)c2csc(C)c2)s1,inactive,–
Cc1ccccc1NC(=S)/C(=C(\[O-])c1ccc(C)c([N+](=O)[O-])c1)[n+]1ccccc1,"inconclusive: 15.8 µM [inhibitor, single point]",–
C[C@H](NC(=O)c1nc[nH]c1C(=O)N[C@H](C)c1ccccc1)C(=O)OC(C)(C)C,"inconclusive: 17.7 µM [inhibitor, single point]",–
Cc1ccn2c(Nc3ccccc3C)c(-c3ccccn3)nc2c1,"inconclusive: 19.9 µM [inhibitor, single point]",–
COc1ccccc1CN=Cc1[nH]c2ccc(Br)c(Cl)c2c1O,"inconclusive: 5.61 µM [inhibitor, partial curve]",–
O=C(CCN1CCN(CCO)CC1)N1c2ccccc2Sc2ccc(C(F)(F)F)cc21,active: 7.94 µM,–

Compound,Potency,"activity, negative = inhibition"
COc1cccc(N=Nc2ccc3ccccc3c2O)c1,"inconclusive: 20 µM [inhibitor, single point]",–
Cc1ccc2nc(N3CCN(Cc4nnnn4Cc4ccccc4)CC3)c(C#N)cc2c1,"inconclusive: 15.8 µM [inhibitor, single point]",–
CSc1ncccc1C(=O)OCc1ccc(COC(=O)c2cccnc2SC)cc1,inactive,–
CCCCn1c(N)c(N(CCOC)C(=O)CSc2nc3ccc(C)cc3[nH]2)c(=O)[nH]c1=O,inactive,–
O=C(O)c1ccc(C2CCCCC2)cn1,"inconclusive: 28.1 µM [inhibitor, single point]",–
COC(=O)C1=C(O)/C(=C\c2cc(C)n(-c3ccc(F)cc3)c2C)N=C1C,active: 15.8 µM,–
Cc1cccc(Nc2nc(N)c([N+](=O)[O-])c(N3CCC(C)CC3)n2)c1,inactive,–
COc1ccc(CC2C(=O)N(C)C(=O)N(C)C2=O)c(OC)c1,"inconclusive: 28.2 µM [inhibitor, partial curve]",–
COc1ccc2c(C)cc(N3CCCCCC3)nc2c1,"inconclusive: 19.9 µM [inhibitor, partial curve]",–
CCCn1c(SCN2C(=O)c3ccccc3C2=O)nc2cc(Cl)ccc2c1=O,inactive,–
Cc1ccccc1Oc1ncnc(N)c1[N+](=O)[O-],inactive,–
COC(=O)c1ccc2nc(C(F)(F)F)[nH]c2c1,"inconclusive: 12.6 µM [inhibitor, partial curve]",–
COc1ccc(NC(=O)CCN2C(=O)c3ccccc3C2=O)cc1,inactive,–
Cc1ccc(NC(=O)Nc2ccc3c(c2)OCO3)nc1,inactive,–
[O-]/C(=C(\C(=S)NCc1ccc2c(c1)OCO2)[n+]1ccccc1)c1ccc(Cl)s1,"inconclusive: 3.15 µM [inhibitor, partial curve]",–
O=C1C(=O)N(CCN2CCCCC2)c2ccccc21,"inconclusive: 6.29 µM [inhibitor, single point]",–
CCn1c(NC(=O)c2cccc(Cn3cc(Cl)cn3)c2)nc2ccccc21,"inconclusive: 17.7 µM [activator, single point]",–
Oc1c(Br)cc(Br)cc1CNc1nccs1,inactive,–
COc1ccc(CNc2cccc3[nH]c(C(F)(F)F)nc23)cc1OC,"inconclusive: 28.2 µM [inhibitor, single point]",–
C/C(=N\Nc1ccc(S(N)(=O)=O)cc1[N+](=O)[O-])c1ccco1,inactive,–
O=C(CSc1nc2ccccc2c(=O)[nH]1)c1ccc(O)c(O)c1,"inconclusive: 2.23 µM [inhibitor, full curve]",–
Cc1c(N=N/C(C(=O)Nc2ccccc2)=C(/O)c2ccccc2)c(=O)n(-c2ccccc2)n1C,inactive,–
CCCC(C(=O)NC1CCCC1)N(C(=O)Cn1nnc(-c2ccc(C)o2)n1)c1ccccc1OC (configuration not stated),inactive,–
COc1ccc(-c2csc(N(CCCN(C)C)C(=O)c3ccc(Br)cc3)n2)cc1,"inconclusive: 35.5 µM [inhibitor, single point]",–
